Measured values: the supplement of paper PMC4967469
A lower IC50 marks a more sensitive line; a fit beyond the top or the lowest dose is shown as a bound at that dose. AUC, from the same fit, is the share of area under the viability curve across the 256-fold dose range: 1 means no effect, lower means more sensitive. For part of these data: Where the top dose is marked as inferred, it was calculated from the reported fits.

Tests used:
Assay in all cases: Viability of human cancer cell lines after 72 h of drug (GDSC screen)
XMD14-99 = compound: COc1cc(N2CCN(C)CC2)ccc1Nc1nc(N)c(C(=O)c2c(Cl)cccc2Cl)s1 [XMD14-99]; settings: top dose 10.24 µM; top dose inferred
Method: (§1)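 Human cancer cell lines in 384-well plates, medium with 10% serum, drug for 72 h over a 256-fold dose range (nine 2-fold or five 4-fold steps up to the top dose). Adherent lines were fixed and stained with the nucleic acid dye Syto60, suspension lines read with resazurin; signal relative to control wells, capped at 0 and 100%. One two-parameter sigmoid per drug and line, fitted in a mixed model over all curves with the slope shared within a line.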

FH535 = compound: Cc1cc([N+](=O)[O-])ccc1NS(=O)(=O)c1cc(Cl)ccc1Cl [FH535]; settings: top dose 32 µM; top dose inferred
Method: as §1

A-443654 = compound: Cc1n[nH]c2ccc(-c3cncc(OC[C@@H](N)Cc4c[nH]c5ccccc45)c3)cc12 [A-443654]; settings: top dose 1.024 µM; top dose inferred
Method: as §1

Dasatinib = compound: Cc1nc(Nc2ncc(C(=O)Nc3c(C)cccc3Cl)s2)cc(N2CCN(CCO)CC2)n1 [Dasatinib]; settings: top dose 1.28 µM
Method: as §1

AT-7519 = compound: O=C(NC1CCNCC1)c1n[nH]cc1NC(=O)c1c(Cl)cccc1Cl [AT-7519]; settings: top dose 10.24 µM; top dose inferred
Method: as §1

Sorafenib = compound: CNC(=O)c1cc(Oc2ccc(NC(=O)Nc3ccc(Cl)c(C(F)(F)F)c3)cc2)ccn1 [Sorafenib]; settings: top dose 4 µM
Method: as §1

Row | Cell Line | AUC (XMD14-99) | IC50 (XMD14-99) [nM] | AUC (FH535) | IC50 (FH535) [nM] | AUC (A-443654) | IC50 (A-443654) [nM] | AUC (Dasatinib) | IC50 (Dasatinib) [nM] | AUC (AT-7519) | IC50 (AT-7519) [nM] | AUC (Sorafenib) | IC50 (Sorafenib) [nM]
1 | SU-DHL-16 (B-cell lymphoma, suspension) | 0.971 | > 10200 | 0.583 | 3180 | 0.575 | 97.1 | 0.108 | 8.12 | 0.452 | 489 |  | 
2 | SUP-B15 (lymphoblastic leukaemia, suspension) | 0.934 | > 10200 | 0.548 | 2690 | 0.716 | 254 |  |  | 0.324 | 212 | 0.84 | 2590
3 | SUP-HD1 (Hodgkin lymphoma, suspension) | 0.955 | > 10200 | 0.676 | 6040 | 0.64 | 153 | 0.975 | > 1280 | 0.318 | 204 |  | 
4 | SUP-M2 (anaplastic large cell lymphoma, suspension) | 0.503 | 650 | 0.75 | 8400 | 0.704 | 204 | 0.987 | > 1280 | 0.095 | 51.9 |  | 
5 | SW684 (fibrosarcoma, adherent) | 0.98 | > 10200 | 0.816 | 29300 | 0.952 | > 1020 | 0.684 | 335 | 0.975 | > 10200 |  | 
6 | SW872 (soft tissue, adherent) | 0.989 | > 10200 | 0.699 | 6810 | 0.732 | 272 | 0.412 | 47 | 0.958 | > 10200 |  | 
7 | SW982 (soft tissue, adherent) | 0.969 | > 10200 | 0.765 | 12100 | 0.653 | 173 | 0.241 | 13.9 | 0.969 | > 10200 |  | 
8 | TALL-1 (T-cell lymphoblastic leukaemia, suspension) | 0.989 | > 10200 | 0.845 | 21600 | 0.711 | 245 | 0.988 | > 1280 | 0.728 | 2740 |  | 
9 | TE-1 (oesophagus, adherent) | 0.972 | > 10200 | 0.687 | 7730 | 0.601 | 131 | 0.555 | 118 | 0.847 | > 10200 |  | 
10 | TE-5 (oesophagus, adherent) | 0.982 | > 10200 | 0.666 | 6270 | 0.627 | 152 | 0.86 | > 1280 | 0.784 | 5050 |  | 
11 | TE-6 (oesophagus, adherent) | 0.978 | > 10200 | 0.818 | 22000 | 0.738 | 349 | 0.827 | 972 | 0.977 | > 10200 |  | 
12 | TE-8 (oesophagus, adherent) | 0.971 | > 10200 | 0.678 | 6520 | 0.651 | 173 | 0.299 | 20.7 | 0.932 | > 10200 |  | 
13 | TE-10 (oesophagus, adherent) | 0.988 | > 10200 | 0.6 | 3740 | 0.55 | 87.5 | 0.455 | 60.3 | 0.637 | 1520 |  | 
14 | TE-11 (oesophagus, adherent) | 0.988 | > 10200 | 0.849 | 20800 | 0.608 | 123 | 0.494 | 77 | 0.963 | > 10200 |  | 
15 | TE-15 (oesophagus, suspension) | 0.937 | > 10200 | 0.565 | 3090 | 0.509 | 68.1 | 0.232 | 11.8 | 0.649 | 1750 |  | 
16 | TE-441-T (rhabdomyosarcoma, adherent) | 0.984 | > 10200 | 0.682 | 6320 | 0.889 | > 1020 | 0.989 | > 1280 | 0.336 | 228 |  | 
17 | TGBC24TKB (biliary tract, adherent) | 0.98 | > 10200 | 0.643 | 4840 | 0.728 | 270 | 0.373 | 36.6 | 0.95 | > 10200 |  | 
18 | TGW (neuroblastoma, adherent) | 0.972 | > 10200 | 0.872 | 23300 | 0.834 | 537 | 0.943 | > 1280 | 0.856 | 6450 |  | 
19 | TK10 (kidney, adherent) | 0.976 | > 10200 | 0.686 | 7460 | 0.682 | 231 | 0.261 | 14.2 | 0.761 | 4380 |  | 
20 | TUR (B-cell lymphoma, suspension) | 0.938 | > 10200 | 0.735 | 8820 | 0.984 | > 1020 | 0.987 | > 1280 | 0.275 | 156 |  | 
21 | VA-ES-BJ (soft tissue, adherent) | 0.986 | > 10200 | 0.427 | 1250 | 0.623 | 143 | 0.399 | 41.5 | 0.885 | > 10200 |  | 
22 | VCaP (prostate, adherent) | 0.908 | > 10200 | 0.871 | > 32000 | 0.779 | 433 | 0.968 | > 1280 | 0.662 | 1830 |  | 
23 | WIL2-NS (lymphoid neoplasm, suspension) | 0.923 | > 10200 | 0.706 | 6690 | 0.676 | 178 |  |  | 0.215 | 115 | 0.611 | 474
24 | YT (lymphoid neoplasm, suspension) | 0.963 | > 10200 | 0.556 | 2770 | 0.992 | > 1020 | 0.991 | > 1280 | 0.855 | 6300 |  | 
